Reference: PubChem BioAssay AID485344 (National Center for Advancing Translational Sciences (NCATS), 2010)
The whole screen tested about 340,000 compounds, of which about 6,900 (2%) were called active. Cut-off read from the data, not from the text of the source: active = inhibition above about 30%; inactive = below that, where a call was filed. The entries are a selection whose mix differs from that of the whole data set. The source gives no active or inactive call for entries shown without one.

Target: D(2) dopamine receptor (Homo sapiens) (UniProt P14416)
UniProt P14416, sequence (P14416 whole entry, looked up): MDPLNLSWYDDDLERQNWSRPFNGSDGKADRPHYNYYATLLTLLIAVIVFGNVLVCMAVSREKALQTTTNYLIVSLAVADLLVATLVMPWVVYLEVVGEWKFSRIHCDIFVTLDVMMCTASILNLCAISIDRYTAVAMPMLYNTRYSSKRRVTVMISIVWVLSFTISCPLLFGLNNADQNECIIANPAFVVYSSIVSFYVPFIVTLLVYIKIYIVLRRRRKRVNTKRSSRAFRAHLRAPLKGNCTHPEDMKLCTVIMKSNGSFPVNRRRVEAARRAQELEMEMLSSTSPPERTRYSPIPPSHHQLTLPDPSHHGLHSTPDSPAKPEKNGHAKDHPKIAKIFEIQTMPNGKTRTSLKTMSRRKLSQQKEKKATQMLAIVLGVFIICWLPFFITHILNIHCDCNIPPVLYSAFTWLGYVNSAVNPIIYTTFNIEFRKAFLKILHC
Assay: HTS Assay for Allosteric Antagonists of the Human D2 Dopamine Receptor: Primary Screen for Antagonists; note: 0% is about no effect
Details: HEK293 TREx D2 cells, calcium flux, dopamine EC80; at 10 µM; stronger effect = higher value
In short: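 Measurement of antagonist activity uses fluorescent calcium dye in inducible HEK293 T-REx D2 cells: 10 s baseline, compound addition with 180 s read, EC80 dopamine addition with a further 180 s read.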

Row | Compound | inhibition
1 | CN1C(=O)c2cccc3c(S(=O)(=O)Nc4cccc(C(=O)O)c4)ccc1c23 | -18.1%
2 | CCOc1ccc(CCNC(=O)Cn2c(-c3cccs3)cc3ccccc32)cc1 | 11.3%
3 | O=C(Nc1cc(Cl)cc(Cl)c1)c1cc(S(=O)(=O)NC2CCCC2)ccc1F | 10.2%
4 | Cc1cccc(N2CCN(C(=O)C3CCN(C(=O)c4cc5sccc5n4C)CC3)CC2C)c1 (configuration not stated) | -3.21%
5 | CCOc1ccc2nc(Cl)c(C3CC(c4ccc(C)cc4)=NN3C(=O)CCC(=O)O)cc2c1 (configuration not stated) | 14.5%
6 | COc1ccc(CN(C)c2ccc(-c3nc(-c4ccc(OC)c(OC)c4)no3)cc2[N+](=O)[O-])cc1 | 4.63%
7 | Cc1c(Cl)cccc1NC(=O)CCS(=O)(=O)c1ccc2c(c1)CC(C)N2C(=O)C1CC1 (configuration not stated) | 3.95%
8 | COc1ccc(N(C(=O)c2ccccc2C)S(=O)(=O)c2ccc(Cl)cc2)cc1 | -4.13%
9 | Nc1ncc(S(=O)(=O)NCc2ccccc2)cn1 | 4.8%
10 | COc1cc(S(=O)(=O)NCCc2c(C)[nH]c3ccc(C)cc23)ccc1Br | 13.2%
11 | COc1ccc(C(=O)c2cn(Cc3ccccc3)c3ccccc3c2=O)cc1OC | 27.4%
12 | CN1C(C(=O)Nc2cccc(O)c2)=CC(c2cccs2)=NS1(=O)=O | -21.4%
13 | COc1ccc(C)cc1NC(=O)CSc1nnc(-c2cc3cccc(OC)c3o2)n1N | active: 35.1%
14 | Cc1cccc(NC(=O)c2ccc(F)c(S(=O)(=O)NCc3ccco3)c2)c1 | active: 33%
15 | O=C(NCCc1nc2ccccc2n1Cc1ccccc1F)c1ccc(F)cc1 | -13.9%
16 | Cc1ccc(NC(=O)CCc2nnc3ccc(N4CCC(C)CC4)nn23)nc1 | active: 32%
17 | CCOc1ccc(CCNC(=O)c2cnc3c(-c4ccc(F)cc4)c(C)nn3c2C)cc1 | 12.3%
18 | Cc1ccc(C)c(NC(=O)C(=O)NCCCN2CCOCC2)c1 | -10.8%
19 | CCOc1ccccc1NC(=O)COC(=O)CC(C)(C)CC1=NS(=O)(=O)c2ccccc2N1 | -3.69%
20 | Cc1onc(-c2ccccc2Cl)c1C(=O)Oc1ccc(Cl)cc1Cl | 6.66%
21 | CCOc1ccc(-n2ccnc2SCC(=O)Nc2cc(C)ccc2C)cc1 | -4.7%
22 | COc1cccc(-n2c(SCc3cccc(C)c3)nc3c([nH]c4ccccc43)c2=O)c1 | 11.4%
23 | CC(C)CCNC(=O)c1cnc2sc(N3CCCCCC3)nn2c1=O | 4.58%
24 | Cc1ccc(O)c(NC(=O)c2cc(-c3ccc(F)cc3)no2)c1 | -24.3%
25 | COc1ccc(CNC(=O)c2ccc(Cn3c(=O)c4cccn4c4cccnc43)cc2)c(OC)c1 | -0.543%

Row | Compound | inhibition
26 | COc1ccc(-n2nc3c(N4CCC(C(=O)N5CCC(C)CC5)CC4)nnc(C)c3c2C)cc1 | 2.8%
27 | COc1ccccc1Nc1nc(C)nc(N)c1S(=O)(=O)c1ccccc1 | 3.1%
28 | CCN(CC)S(=O)(=O)c1ccc2c(c1)nc(CN(C)C(=O)Nc1ccc(C)c(Cl)c1)n2C | 5.23%
29 | Cc1nc2c3cccnc3nn2c(C)c1CCC(=O)NCc1ccccc1 | 4.68%
30 | CCc1ccc(NC(=O)C(=O)NCC(c2ccc3c(c2)OCO3)N2CCN(C)CC2)cc1 (configuration not stated) | -1.24%
31 | COc1ccc(Nc2ncc(C(=O)Nc3cccc(Cl)c3)c3ccccc23)cc1 | 1.7%
32 | Cc1ccc(OCC(=O)NCC2(N3CCN(C)CC3)CCCCC2)cc1 | -15.3%
33 | COc1ccc(-c2nc(CNC(=O)Nc3ccccc3)c(C)o2)c(OC)c1 | -5.96%
34 | CCN1CCN(CCCNC(=O)Cn2c(-c3cccs3)cc3cc(Cl)ccc32)CC1 | 6.44%
35 | COc1ccccc1CNC(=O)CCc1c(C)c2cc3c(C)coc3cc2oc1=O | 10.4%
36 | CCn1ccc2c(OCC(=O)Nc3ccc(OC)cc3OC)cccc2c1=O | -14.2%
37 | CCC(=O)N1c2ccccc2CC1C(=O)NCCCN1CCN(c2ccc(OC)cc2)CC1 (configuration not stated) | 3.86%
38 | CCn1cc(C(=O)NCCC(C)C)c(=O)c2cc(S(=O)(=O)N(C)C3CCCCC3)ccc21 | -7.81%
39 | O=S(=O)(Nc1ccc(O)c(Sc2nc3ccccc3s2)c1)c1cc(Cl)ccc1Cl | 6.96%
40 | O=C(Cn1c(-c2cccs2)cc2cc(F)ccc21)NCCc1ccc(Cl)cc1 | 13.5%
41 | CC1CCCCN1c1cc2c(cc1F)c(=O)c(S(=O)(=O)c1ccccc1)cn2Cc1ccccc1 (configuration not stated) | -2.88%
42 | Cc1c(Cl)cccc1NC(=O)C(=O)NCCc1csc2nc(-c3ccccc3F)nn12 | 23.3%
43 | CCCCOc1ccc(CNC(=O)c2cnc3sc(N4CCCC4)nn3c2=O)cc1 | 4.81%
44 | Cc1ccc(Cl)cc1N1CCN(C(=O)c2ccc3c(Cl)c4c(nc3c2)CCCC4)CC1 | -12%
45 | CC1CCC(NC(=O)c2ccc(CSc3nc4ccncc4n3Cc3ccc(F)cc3)cc2)CC1 (configuration not stated) | 0.554%
46 | COc1ccc(-n2c(SCCC(C)C)nc3sc4c(c3c2=O)CC(C(C)C)OC4)cc1 (configuration not stated) | 11.3%
47 | Cc1nn(CCCC(=O)Nc2ccccc2C(F)(F)F)c(=O)c2nn(-c3ccccc3)c(C)c12 | 4.9%
48 | Cc1nn2c(-c3ccccc3)cc(-c3ccccc3)nc2c1-c1ccc(Cl)cc1 | -9.22%
49 | Cc1cc(C)n2nc(CNC(=O)c3ccc(Cl)cc3)nc2n1 | -3.95%
50 | O=C(Nc1ccccc1)c1cccc(N2CCCS2(=O)=O)c1 | -0.275%

Row | Compound | inhibition
51 | COc1ccc(C(CC(=O)Nc2ncccc2C)N2Cc3ccccc3C2=O)cc1OC (configuration not stated) | -13.7%
52 | CCc1ccc(NC(=O)c2cc(S(=O)(=O)NC3CCCCCC3)ccc2F)cc1 | 4.73%
53 | Cc1nn(-c2ccccc2)c2c1N(CCCC(=O)NC(C)c1ccccc1)C(=O)CS2 (configuration not stated) | 7.85%
54 | COc1cc(OC)cc(C(=O)N2CCN(C(=O)c3cccc(F)c3)CC2)c1 | active: 30.8%
55 | Cc1nn(-c2ccccc2)c2c1N(CC(=O)N1CCN(c3ccc(Cl)cc3)CC1)C(=O)CS2 | -0.655%
56 | CCc1ccc(CNC(=O)CCn2nc(C)c3c(C)n(-c4ccccc4)nc3c2=O)cc1 | -1.91%
57 | Cc1ccc(S(=O)(=O)c2cn(Cc3ccccc3)c3cc(N4CCOCC4)c(F)cc3c2=O)cc1 | 12.8%
58 | COc1cc(NC(=O)c2noc3c2CC(C)CC3)c(OC)cc1Cl (configuration not stated) | -3.66%
59 | CC(=O)c1cccc(NS(=O)(=O)c2c(C(=O)N3CCCCCC3)c(C)n(C)c2C)c1 | 5.83%
60 | COc1ccc2c(c1)c(N1CCCC1=O)c(C(=O)Nc1ccc(OC)c(Cl)c1)n2C | 9.76%
61 | CCOc1ccc(CNC(=O)Cn2c(=O)c3cccn3c3cccnc32)cc1 | -0.357%
62 | COc1ccc(NC(=O)[C@H](Cc2ccccc2)N2Cc3ccccc3C2=O)cc1OC | -5.83%
63 | COc1cccc(NC(=O)Cn2c(=O)n(Cc3ccc4c(c3)OCO4)c(=O)c3oc4ccccc4c32)c1 | 11.2%
64 | CCCn1c(SCC(=O)N2CCN(C(=O)c3ccco3)CC2)nc2ccccc2c1=O | active: 30.8%
65 | Cc1ccc(-n2ncc(C(=O)NCCN3CCN(C)CC3)c2C2CCN(C(=O)OC(C)(C)C)CC2)cc1C | -9.25%
66 | CCN(CC)C(=O)C1=C(C)Nc2nc3ccccc3n2C1c1cccc(OC)c1 (configuration not stated) | -8.47%
67 | Cc1cc(=O)[nH]c(N/N=C/c2ccc(-c3ccc(F)cc3)o2)n1 | active: 48.3%
68 | COc1ccc([N+](=O)[O-])cc1NC(=O)Cn1ccsc1=N | active: 30.8%
69 | O=C(Nc1ccccc1C(F)(F)F)c1ccc(F)c(S(=O)(=O)N2CCc3ccccc3C2)c1 | 13.7%
70 | Cc1ccc(-n2c(C)cc(/C=C(\C#N)C(=O)Nc3ccc(C)c(C)c3)c2C)cc1 | -5.98%
71 | CCc1ccc(OCC(=O)N(Cc2ccc(C(C)C)cc2)C2CCS(=O)(=O)C2)cc1 (configuration not stated) | -19.1%
72 | CCCOc1ccc(C2C(=O)N(C3CCC(C)CC3)CC(=O)N2CCc2ccccc2)cc1OC (configuration not stated) | -1.38%
73 | CNCCOc1ccccc1-c1ccccc1 | active: 45%
74 | Cc1ccc(-c2noc(CNC(=O)c3ccc(C)c(Cl)c3)n2)cc1 | 4.47%
75 | Cc1ccc(CN2CCN(/N=C/c3cccn3C)CC2)c(C)c1 | active: 51.4%

Row | Compound | inhibition
76 | COc1c(Br)cc(Br)cc1/C=N/NC(=O)c1ccncc1 | active: 93.5%
77 | CCc1cccc(NC(=O)C2CCN(S(=O)(=O)c3ccc4c(c3)CC(C)N4C(C)=O)CC2)c1 (configuration not stated) | active: 70.1%
78 | O=C(NCc1ccccc1Cl)c1nnc(Cc2cccc(F)c2)o1 | 9.73%
79 | Cc1ccc2c(CC(=O)N(Cc3ccc(N(C)C)cc3)Cc3ccco3)coc2c1C | 1.9%
80 | N#Cc1ccccc1CSc1nnc(-c2ccc(Br)cc2)o1 | -6.39%
81 | Cc1ccc(CNC(=O)Cn2ccn(-c3cccc(Cl)c3)c(=O)c2=O)cc1 | 9.81%
82 | O=C1CSC2(C(=O)N(Cc3cccc(C(F)(F)F)c3)c3ccccc32)N1c1ccc(F)c(F)c1 (configuration not stated) | -2.36%
83 | Cc1cccc2nc(-c3ccccn3)c(Nc3ccccc3)n12 | 0.0317%
84 | CC(C)Cn1cc(NC(=O)N2CCN(c3cccc(C(F)(F)F)c3)CC2)c2ccccc2c1=O | 9.71%
85 | COc1ccc(CNC(=O)c2c(O)nc3c(C)cccn3c2=O)cc1 | 4.08%
86 | CCCCOC(=O)c1ccc(-n2nnc3c(sc4nc(C)cc(C)c43)c2=O)cc1 | 6.89%
87 | O=C(Nc1ccc(Cl)cc1)NC1CCCC1Cc1ccco1 (configuration not stated) | active: 53.4%
88 | O=S(=O)(NCCc1nnc2ccc(SCc3ccccc3Cl)nn12)c1ccccc1 | -3.27%
89 | Cc1cc(N2CCC(C)CC2)nc2ccc(NC(=O)Cc3ccccc3Br)cc12 | -8.86%
90 | COc1cc2nc(Nc3cccc(F)c3)nc(N)c2cc1OC | -2.61%
91 | CCOc1ccc(-c2nc(-c3ccccc3)c(-c3ccccc3)[nH]2)cc1OCC | -19.9%
92 | Cc1ccc(-c2nc(CSc3nnc(C)n4c3cc3occc34)c(C)o2)cc1 | -1.08%
93 | Cc1ccc(NC(=O)CN(Cc2ccccc2)S(=O)(=O)c2ccc3nc(C)sc3c2)c(C)c1 | 22.6%
94 | CCCCSc1nnc2c(n1)OC(c1ccc(Br)s1)Nc1ccccc1-2 (configuration not stated) | 7.38%
95 | CCn1c(CN2CCN(C)CC2)nc2cc(NC(=O)c3ccc([N+](=O)[O-])cc3)ccc21 | 4.34%
96 | NC(=O)C1CCN(c2csc3ccc(F)cc3c2=O)CC1 | 8.53%
97 | COc1ccc(N2CCN(C(CNC(=O)c3ccc(OC)c(OC)c3)c3cccnc3)CC2)cc1 (configuration not stated) | 4.13%
